# Test results published in the supplement of paper PMC12217912.
# The other results are listed elsewhere or left out. Sequences were assembled here from the parent chain. Values near 0.05 are background.
# B1: TEV protease; numbered along this chain (parent)
# chain: MGESLFKGPRDYNPISSSICHLTNESDGHTTSLYGIGFGPFIITNKHLFRRNNGTLVVQSLHGVFKVKDTTTLQQHLVDGRDMIIIRMPKDFPPFPQKLKFREPQREERICLVTTNFQTKSMSSMVSDTSCTFPSGDGIFWKHWIQTKDGQCGSPLVSTRDGFIVGIHSASNFTNTNNYFTSVPKNFMELLTNQEAQQWVSGWRLNADSVLWGGHKVFMVKPEEPFQPVKEATQL
# Variants of: B1
# Experiment: raw area under fraction-flipped curve 0-4 h after induction (AUC4h, not background-subtracted), DNA-recorder readout of cleavage of the substrate (dimensionless); higher = more cleavage of the substrate by the protease variant
# Details: temperature: 34 °C; time window: 0-4 h after rhamnose induction
# Method: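 In vivo DNA recorder in E. coli TOP10(DE3) ΔrhaA at 34 °C. Each TEVp single-site mutant (parent TEVp 0) is paired with a single-site variant of the 7-mer TEVs (canonical ENLYFQ|S). The substrate sits between flexible linkers in a Bxb1-sfGFP-TEVs-SsrA fusion, so cleavage stabilises Bxb1 and speeds flipping of a recombination array, read by NGS. The value is the raw area under the fraction-flipped curve over 0-4 h after rhamnose induction (AUC4h), with ≥20 reads per time point. It is not background-subtracted; inactive controls average about 0.047.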
# 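Further: Bxb1 expression induced with 0.2% (w/v) L-rhamnose at OD600 near 0.5, cultures sampled hourly, flipped fraction per protease–substrate barcode pair counted by paired-end Illumina sequencing.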
Variant,area with substrate ECLYFQS,area with substrate EDLYFQS,area with substrate EELYFQS,area with substrate EFLYFQS,area with substrate EGLYFQS,area with substrate EILYFQS,area with substrate EKLYFQS,area with substrate ELLYFQS,area with substrate EMLYFQS,area with substrate EPLYFQS,area with substrate EQLYFQS,area with substrate ERLYFQS,area with substrate ESLYFQS,area with substrate EVLYFQS,area with substrate EYLYFQS,area with substrate ETLYFQS,area with substrate EHLYFQS,area with substrate EWLYFQS
P14D,0.092,0.121,0.0508,0.134,0.0974,0.0924,0.113,0.105,0.119,0.115,0.119,0.104,0.11,0.0849,0.152,–,–,–
S26D,0.0837,0.104,0.0988,–,–,0.0929,0.0865,–,0.0936,–,0.104,0.0788,0.0904,0.0882,0.0789,0.0961,–,–
C20P,0.0663,0.0596,0.0626,0.119,0.051,0.0615,0.0484,0.0599,–,0.0653,0.0614,0.0642,0.063,–,0.0389,0.0534,0.0757,0.0572
D91Q,0.117,–,–,–,–,0.0945,–,–,–,–,0.117,–,0.131,0.0795,–,–,–,–
G63H,0.0991,0.113,–,–,0.0881,0.096,0.0854,0.0947,–,–,0.0878,–,–,0.0816,–,–,–,–
D82R,0.0407,0.0376,0.0646,–,–,–,–,–,–,–,–,–,–,0.0526,–,0.0497,–,–
D27L,0.0888,0.122,0.0939,–,0.094,0.0943,0.0982,0.0892,0.105,0.125,0.073,0.0685,0.0956,0.0907,–,0.0883,0.118,0.0687
S171V,0.0788,–,–,–,0.0489,–,0.066,0.0872,–,0.0773,–,0.0549,0.0621,0.0737,0.0774,0.0606,–,–
E189M,0.102,–,0.113,–,0.0769,0.0884,0.107,0.0904,–,0.0904,0.133,0.101,0.0888,0.0626,–,–,0.102,0.0866
T176A,0.105,–,–,–,–,0.0801,–,0.0707,0.0914,–,0.0677,0.0651,0.074,–,0.058,–,–,0.0475
F226I,0.128,–,0.112,0.11,0.118,–,0.108,0.095,0.125,–,0.127,0.122,0.14,–,–,–,–,–
L190H,0.0976,–,0.0777,–,0.114,0.0699,–,0.0982,0.114,–,–,–,0.0934,0.0903,0.117,0.0891,–,0.0987
S124A,0.11,0.123,0.0966,–,–,0.0833,0.117,0.107,0.122,–,–,–,–,0.0973,–,–,–,–
T23V,0.115,0.123,0.133,0.102,0.106,0.066,0.126,0.115,0.114,0.122,0.122,0.108,0.143,0.0941,0.117,0.131,–,0.0819
V210C,0.0994,–,0.122,0.0902,0.077,0.0881,0.106,0.0836,0.0897,0.123,–,0.0842,0.0927,0.0822,0.101,–,0.114,–
Q118V,0.0574,–,–,–,0.101,0.119,0.126,0.0905,0.104,0.157,–,–,–,0.0882,0.123,0.136,–,–
